Assay results published in the supplement of paper PMC3334620.
Over roughly 33,000 sequences, “E-score (-0.5 to 0.5)” has its median near -0.036; the highest 2% begin near 0.37. This is one part of the list.

Molecular target: T1, Yer064c (UniProt P40041)
T1 sequence: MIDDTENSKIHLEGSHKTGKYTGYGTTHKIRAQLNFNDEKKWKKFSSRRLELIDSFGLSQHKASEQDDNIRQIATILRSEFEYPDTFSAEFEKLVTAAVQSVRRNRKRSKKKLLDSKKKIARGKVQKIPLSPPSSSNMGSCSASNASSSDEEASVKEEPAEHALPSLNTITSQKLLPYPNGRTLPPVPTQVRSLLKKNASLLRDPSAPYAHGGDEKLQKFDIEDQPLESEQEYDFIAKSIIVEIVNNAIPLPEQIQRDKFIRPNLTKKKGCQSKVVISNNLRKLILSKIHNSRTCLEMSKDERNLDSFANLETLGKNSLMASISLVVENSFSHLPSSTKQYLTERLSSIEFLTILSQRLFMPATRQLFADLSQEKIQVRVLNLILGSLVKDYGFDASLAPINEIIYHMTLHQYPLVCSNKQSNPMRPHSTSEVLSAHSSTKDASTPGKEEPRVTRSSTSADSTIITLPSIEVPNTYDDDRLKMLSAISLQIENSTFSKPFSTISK
Experiment: PBM E-score (8-mer binding enrichment) (E-score (-0.5 to 0.5)); higher = stronger / more preferred TF binding; most listed sequences are background and not binding sites
Conditions: protein concentration: 200 nM; construct: GST-full length
Procedure: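 Universal 'all 10-mer' protein binding microarrays (Agilent AMADID 015681) probed with GST-tagged S. cerevisiae TFs (full-length or DBD) made by in vitro transcription/translation (PURExpress), about 100-200 nM. Bound TF was detected with fluorescent anti-GST. Each ungapped 8-mer (which stands for itself and its reverse complement) is scored by the PBM enrichment score (E-score), a modified Wilcoxon-Mann-Whitney statistic from -0.5 to +0.5, computed with the Universal PBM Analysis Suite. Scale: above 0.35 generally sequence-specific binding.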

| Sequence | PBM E-score |
| --- | --- |
| GTCGAGAA | -0.0113 |
| CCCCAAAG | -0.169 |
| GGAAATCA | 0.292 |
| CAACGAAG | -0.0515 |
| ATATGTTG | -0.0992 |
| CTACCAAG | -0.00418 |
| AGCGTACT | -0.0503 |
| AAGGCCAG | -0.349 |
| TACTTGAA | 0.115 |
| GCAGTACA | 0.0354 |
| AGGGCGGG | -0.114 |
| AGACCAAT | -0.0553 |
| GGATTACA | 0.0898 |
| ACACACAC | 0.141 |
| CGAGAATA | -0.0825 |
| GAAGGGGC | -0.307 |
| TGAGAACA | 0.0377 |
| CATCGGCA | -0.0567 |
| CATCTTGG | -0.163 |
| AGTGATAT | -0.134 |
| CGAAGTAC | -0.00769 |
| ATCCGCTC | -0.166 |
| ATCGCCAT | 0.01 |
| AAACGCGA | -0.0525 |
| GTCGCGTA | 0.139 |

| Sequence | PBM E-score |
| --- | --- |
| AAGCGAGT | 0.27 |
| ACTTATAG | 0.11 |
| ATAAAGAC | 0.196 |
| ATTAAAAG | 0.13 |
| AATAGAGG | -0.144 |
| ATCTTACG | 0.209 |
| AAGTTTGG | -0.0296 |
| CCGCCGAG | -0.128 |
| AACTGCGG | -0.293 |
| CGACAACG | 0.107 |
| ATTAACGA | 0.199 |
| AACATGTC | -0.128 |
| GACAGACA | 0.0624 |
| ATTATCTG | 0.082 |
| AGTTTATC | -0.0467 |
| CTTTGCCA | -0.147 |
| ATTGCGGC | -0.164 |
| CTGGAGGC | -0.088 |
| AATTCTTA | 0.0531 |
| CCCGGGAA | 0.0078 |
| ATTCGGGA | -0.0942 |
| CCATCGTA | 0.178 |
| ACCGCAAA | 0.00358 |
| AGGTTAAC | 0.161 |
| CATTGACG | 0.148 |

| Sequence | PBM E-score |
| --- | --- |
| CCGTAGCA | -0.159 |
| GAACGAAA | -0.267 |
| ATAGAGTC | 0.371 |
| ACCTTTGC | 0.0444 |
| GGTACTTA | -0.0396 |
| CCAGTGGG | -0.129 |
| ACACGTCC | -0.282 |
| CCGTCCGA | -0.287 |
| CCGGGAAG | -0.0937 |
| AAGATCGC | -0.183 |
| AGAGTATG | -0.048 |
| CGATACAG | -0.159 |
| CCAATTTC | -0.181 |
| CAGTAGCC | -0.116 |
| AAATCGCT | -0.118 |
| ACGGTCCA | -0.179 |
| CCCCGCTC | -0.131 |
| GCTATATA | 0.00598 |
| CGATCAAC | -0.117 |
| ACCGCCCC | -0.0587 |
| ACATCACG | -0.0358 |
| TACACTAA | 0.0746 |
| ATGAGATG | 0.0267 |
| CTTTGCTC | 0.0112 |
| AAAGAGCC | -0.211 |

| Sequence | PBM E-score |
| --- | --- |
| ATGGCCTG | -0.261 |
| AGCTTAAG | -0.0387 |
| TAGCTGAA | -0.0452 |
| GTCTGCAC | -0.138 |
| AGTTCCCG | -0.251 |
| AGCAAGAA | -0.0714 |
| AACTAGGC | -0.0546 |
| CGCTTCCG | -0.297 |
| CAGTCCTA | 0.183 |
| ACCGGACT | 0.0887 |
| GAGTTGAC | 0.167 |
| GAGCCAAC | -0.0982 |
| CAGCGATG | 0.0562 |
| CATCAGAA | -0.0826 |
| AGGGCTGC | -0.346 |
| GAAACCCC | -0.187 |
| ATTTCGGA | -0.0687 |
| GTGTGTCA | 0.089 |
| GGGTTTGA | 0.071 |
| GGACACGA | -0.0272 |
| ATAACAAT | 0.0186 |
| ACCCCCAC | -0.19 |
| TAAGGGGA | -0.247 |
| ATCATCGG | 0.353 |
| GCGCGTTA | 0.0235 |

| Sequence | PBM E-score |
| --- | --- |
| AGCGTCAA | -0.0122 |
| AGAGTCAT | 0.492 |
| ACTTCGAA | 0.166 |
| ATTGACGC | -0.0348 |
| GGGCGCAC | -0.321 |
| CTCCCTAC | -0.0867 |
| CAGTATCC | -0.119 |
| CGGATAAC | 0.00893 |
| GAACCGAC | -0.0237 |
| CGTGGTCA | 0.221 |
| ATAAAATG | 0.0301 |
| ACTCTGGC | 0.0882 |
| AATATTAC | 0.0601 |
| AGCGGGAT | -0.231 |
| AAGGACCA | -0.026 |
| ATATCGCA | -0.0521 |
| GATATGGC | -0.175 |
| ATTTCATG | 0.0433 |
| ATTGAGTA | 0.282 |
| CTGTTGGA | -0.0914 |
| AGACAGAA | 0.0973 |
| CCGGGAGG | -0.302 |
| CGAAATGA | 0.184 |
| CAGAAGGC | -0.176 |
| GGAGACTA | 0.375 |

| Sequence | PBM E-score |
| --- | --- |
| ACAGATGG | -0.194 |
| ACACGTGT | 0.0605 |
| ATGGTCGA | 0.0686 |
| AGGATGAC | 0.32 |
| GAACGTCA | -0.215 |
| CCGCCAGC | -0.285 |
| GGAAGAGA | -0.0994 |
| CGGTATTA | 0.0718 |
| ATATACTA | 0.0982 |
| CAGAGCGG | -0.0725 |
| CCTGCCTA | -0.214 |
| AGTTGTTG | -0.141 |
| CCCGTGTA | -0.226 |
| TCAGTCGA | 0.244 |
| CCTGAGAA | 0.0016 |
| AAGAAACG | -0.028 |
| GGCTACCC | -0.0673 |
| GGATCCGA | -0.0154 |
| ATTATCTA | 0.198 |
| AAAAAACA | 0.0664 |
| ACCCGGAC | 0.0263 |
| GTTATGCA | -0.00398 |
| GACATGTC | -0.228 |
| GAAGGCGA | -0.164 |
| ATCATACC | 0.264 |

| Sequence | PBM E-score |
| --- | --- |
| AAAAGAGC | 0.0186 |
| CGTAACTA | 0.00757 |
| ATGTAGGA | -0.124 |
| ATCGACAT | -0.0554 |
| CGGTTTTC | -0.00995 |
| AGTATATC | -0.00374 |
| CGTTCGGC | -0.129 |
| CGCATTAC | -0.161 |
| GCTGCACC | -0.182 |
| GAGGCCGC | -0.363 |
| CCCGGAAC | -0.178 |
| AACTGTAA | -0.0147 |
| AGAGCTTA | -0.0296 |
| ATCTCATA | 0.0865 |
| CTACCATC | -0.124 |
| CGGACCCG | -0.0357 |
| CGGGCTTA | -0.215 |
| ACCTCATC | -0.0746 |
| GCAAGGGA | -0.101 |
| ACCTTCAC | -0.074 |
| ATATTATC | -0.0585 |
| GATTACAC | 0.266 |
